From publication PMC4336329 (PLoS ONE, 2015)
Out of some 310,000 compounds screened, about 14,000 (4.5%) showed an effect of 50% or more. The effect is printed as a negative number. The list shows a part of the results.

Each compound was assayed against human ether-à-go-go-related gene (hERG) potassium channel (human, UniProt Q12809) (assay: primary screen, population patch clamp on CHO cells stably expressing hERG).
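Also: peak tail current of the secondary pulse compared with the same well before compound.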

Sequence of human ether-à-go-go-related gene (hERG) potassium channel (Q12809 whole entry, looked up): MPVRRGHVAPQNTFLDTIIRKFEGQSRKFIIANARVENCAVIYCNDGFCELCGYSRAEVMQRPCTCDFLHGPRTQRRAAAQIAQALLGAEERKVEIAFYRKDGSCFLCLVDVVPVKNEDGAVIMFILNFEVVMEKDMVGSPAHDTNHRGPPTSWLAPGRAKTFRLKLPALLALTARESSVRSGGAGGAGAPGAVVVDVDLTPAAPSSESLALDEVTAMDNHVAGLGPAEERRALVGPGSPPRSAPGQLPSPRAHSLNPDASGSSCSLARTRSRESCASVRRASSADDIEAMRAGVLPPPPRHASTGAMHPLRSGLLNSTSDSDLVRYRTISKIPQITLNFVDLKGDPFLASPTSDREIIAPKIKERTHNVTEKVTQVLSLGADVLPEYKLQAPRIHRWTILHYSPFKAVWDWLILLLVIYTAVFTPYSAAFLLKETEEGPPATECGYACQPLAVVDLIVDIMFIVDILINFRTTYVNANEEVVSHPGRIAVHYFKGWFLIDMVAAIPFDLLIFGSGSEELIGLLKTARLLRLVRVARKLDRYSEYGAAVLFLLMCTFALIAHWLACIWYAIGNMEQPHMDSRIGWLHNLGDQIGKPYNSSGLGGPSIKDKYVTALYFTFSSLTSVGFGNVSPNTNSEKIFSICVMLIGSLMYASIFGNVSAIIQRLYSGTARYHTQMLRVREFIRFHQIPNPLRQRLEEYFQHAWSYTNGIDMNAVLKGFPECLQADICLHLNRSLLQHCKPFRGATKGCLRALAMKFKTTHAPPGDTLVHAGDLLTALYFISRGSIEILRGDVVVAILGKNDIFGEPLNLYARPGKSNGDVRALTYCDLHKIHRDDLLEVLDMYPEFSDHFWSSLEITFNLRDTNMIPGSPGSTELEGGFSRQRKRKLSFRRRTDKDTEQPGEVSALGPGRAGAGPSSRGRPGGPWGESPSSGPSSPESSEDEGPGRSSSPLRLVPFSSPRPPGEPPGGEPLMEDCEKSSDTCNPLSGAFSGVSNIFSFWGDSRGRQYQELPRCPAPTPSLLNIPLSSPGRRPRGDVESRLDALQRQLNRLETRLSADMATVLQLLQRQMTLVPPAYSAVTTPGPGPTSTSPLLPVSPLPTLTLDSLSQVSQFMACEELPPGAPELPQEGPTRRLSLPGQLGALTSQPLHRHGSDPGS

Compound | hERG current change (%, negative = inhibition) at 10uM [%]
COc1ccc(CCC(=O)NNC(=O)Nc2cc(Cl)ccc2C)cc1 | 8.33
Cc1ccc2ccccc2[n+]1CCCS(=O)(=O)[O-] | 11.7
O=C(NC1CCCCC1)N(Cc1cc2cc3c(cc2[nH]c1=O)OCCO3)CC1CCCO1 (centres unmarked) | -6.1
Cc1cc([N+](=O)[O-])ccc1-c1ccc(/C=N/NC(=O)Cc2ccccc2)o1 | 10.3
CN1CCN(C(CNC(=O)C(=O)NC2CCCCC2)c2ccc(F)cc2)CC1 (centres unmarked) | -23
COc1ccc(/C=C2\SC(=S)N(C(C(=O)O)c3ccccc3)C2=O)c(OC)c1 (centres unmarked) | 15.8
C/C(=C\c1ccccc1F)C1Nc2cccc3cccc(c23)N1 | 13.1
CCCCc1nc2ccc(S(=O)(=O)O)cc2[nH]1 | -0.324
Cc1nnc(SCC2=C(C(=O)O)N3C(=O)C(NC(=O)c4cccc(F)c4F)C3SC2)s1 (centres unmarked) | 13.2
Cc1cccc2cc(CNC3CCCC3)c(Cl)nc12 | 0.412
CN1C2CCC1CC(=NO)C2 | 11
COc1cc(/C=N/NC(=O)c2ccoc2C)ccc1OCCN1CCCCC1 | -31.6
N#CCc1nn(Cc2ccc(F)cc2)c(=O)c2ccccc12 | -24.6
CCc1cccc2c(C(=O)COC(=O)c3ccc([N+](=O)[O-])s3)c[nH]c12 | -3.62
NC(=O)COc1ccc(Cc2ncc(C(F)(F)F)cc2Cl)cc1 | -2.34
COc1cc(NC(=O)NCCN2CCN(c3ccc(Cl)cc3)CC2)ccc1C | -4.15
C[C@H]1c2cccc(O)c2C(O)=C2C(=O)C3(O)C(O)=C(C(N)=O)C(=O)[C@@H](N(C)C)[C@@H]3[C@@H](O)[C@@H]21.Cl (some centres unmarked) | 25.1
O=S(=O)(NCCC1=CCCCC1)c1cccc(S(=O)(=O)N2CCOCC2)c1 | -11.9
Cn1nnnc1-c1cc(Br)ccc1NC(=O)c1ccccc1 | 10.2

Compound | hERG current change (%, negative = inhibition) at 10uM [%]
COc1ccc(-n2nc3c(c2NC(=O)c2c(-c4ccccc4Cl)noc2C)CS(=O)(=O)C3)cc1 | -23.8
CC(C)=CCN1CCN(Cc2cc(F)ccc2-n2nc(C)cc2C)CC1CCO (centres unmarked) | -25
CSCC[C@@H](C(=O)NCCCCCCCCCCC(=O)N1CCNCC1)n1cc(CCO)nn1 | 13.4
Cc1ccc(C)c2nc3sc(C(=O)O)cc3cc12 | 20.9
N#CCCn1cc(C(=O)Nc2cccc(C(=O)O)c2)c(-c2ccc(Cl)cc2)n1 | 14.5
COc1cccc(/C=N/Nc2ncnc(Cl)c2N)c1O | 4.83
CCCCC(=O)NCCc1cc2ccc(OC)cc2[nH]c1=O | -1.37
Cc1ccc(NC(=O)C2CC(O)CN2C(=O)Oc2ccccc2)c(C)c1 (centres unmarked) | 14.3
Cc1ccc(-c2nnc(SCC(=O)N3CCN(c4ccccc4)CC3)o2)cc1 | 10.5
CCOc1ncccc1C(=O)N1CCCSC1=Nc1ccccc1OC | 9.21
COc1ccc(C(CNC(=O)c2cc3c(s2)CCC(C)C3)N2CCOCC2)cc1 (centres unmarked) | -54
CCOc1ccc(CN(C)C(=O)c2cc(S(=O)(=O)N3CCCC3)ccc2C)cc1 | -34.1
Cl.O=C(c1ccc(F)cc1)C(CN1CCOCC1)c1ccccc1 (centres unmarked) | -12.3
CN(CC(=O)Nc1cccc(F)c1)C(=O)CC1CC2CCC1C2 (centres unmarked) | -1.76
Cc1ccc(-c2cc(-c3cccc(F)c3)n[nH]2)c(O)c1 | 4.9
O=C(Nc1ccccc1)c1sc2cc(C(F)(F)F)cnc2c1-c1cccs1 | -5.56
O=C(/C=C/Nc1ccc(S(=O)(=O)Nc2cnc3ccccc3n2)cc1)c1ccccc1 | -0.234
Cn1cc(/C=C(\C(=O)O)C(C(=O)O)=C2CCCCC2)c2ccccc21 | 3.75
C=C(C)CNC(=S)N/N=C/c1ccc([N+](=O)[O-])cc1 | 14.4

Compound | hERG current change (%, negative = inhibition) at 10uM [%]
COCCNC(=O)CN(C(=O)CCC(=O)Nc1ccccn1)c1ccccc1F | 18.5
Cc1cc(C)c(NC(=O)CNC(=O)CSc2nnc(N)s2)c(C)c1 | 16.7
Cc1nn(Cc2ccc(F)cc2)c(C)c1NC(=O)c1cnn2cccnc12 | 0.0468
CC(CC(=O)Nc1ccccc1C(F)(F)F)c1ccccc1 (centres unmarked) | -11.5
CC1CCCN(C(=O)c2ccncc2)C1 (centres unmarked) | 1.39
CCCCOc1ccc(C(C)(O)CCN2CCOCC2)cc1 (centres unmarked) | -2.97
CC(C)(C(=O)c1ccccc1)/[N+]([O-])=C/c1ccc(Br)cc1 | 7.9
COc1ccc(S(=O)(=O)NCC(=O)N(CC(=O)NCC2CCCO2)c2cc(C)ccc2C)cc1 (centres unmarked) | 2.96
CSc1ccccc1-c1nnc(-c2ccc(Cl)cc2Cl)o1 | 7.18
Cn1cc(C(C[N+](=O)[O-])c2ccccc2)c2ccccc21 (centres unmarked) | 6.13
C=CCNc1nc(Cl)ncc1F | -7.52
Cc1c(C)n2c(SCC(=O)N3CC(C)OC(C)C3)nnc2[nH]c1=O (centres unmarked) | 9.45
O=C1ON=C(c2ccccc2)/C1=C/c1ccc(O)cc1 | 12.3
O=C(N/C(=C/c1ccc(Cl)cc1)C(=O)N1CCCC1)c1ccccc1 | -8.81
O=C(COC(=O)c1ccc2c(c1)C(=O)N(c1cccc3ncccc13)C2=O)c1ccc(Cl)cc1 | 13.5
COc1ccc(C(NC=O)c2cc(OC)c(OC)cc2Br)cc1OC (centres unmarked) | 13.6
CC1CCCCN1S(=O)(=O)c1ccc(C(=O)Nc2nnc(-c3ccccc3Cl)o2)cc1 (centres unmarked) | -5.11
COC(=O)c1ccc(COC(=O)c2ccc(CO)cc2)o1 | 20.5
